Fewer than 10 of roughly 2,200 compounds were called active. The list shows a part of the results. Where no call is shown, the source marks the result inconclusive.

This assay has as its target GTPase KRas (Homo sapiens) (UniProt P01116). Put plainly: Covalent labelling of cysteine mutants by fragments, read by mass spectrometry (AID 2202238). The arrangement: protein at 5 µM with 500 µM competing thiol for 1.5 h. The conditions noted are these: KRAS G12D cysteine mutants, disulfide tethering, MALDI-TOF labeling; stronger effect = higher value; H27C mutant labeling; fragment at 500 µM.
Sequence of UniProt P01116 (P01116 whole entry, looked up, the tested form may be a part): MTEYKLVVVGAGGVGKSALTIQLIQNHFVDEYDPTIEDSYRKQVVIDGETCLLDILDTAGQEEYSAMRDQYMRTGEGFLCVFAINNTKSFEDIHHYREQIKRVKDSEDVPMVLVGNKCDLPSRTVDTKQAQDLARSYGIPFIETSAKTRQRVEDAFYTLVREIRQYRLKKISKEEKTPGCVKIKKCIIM
Take `O=C(NCCS)c1csc(-c2cnccn2)n1`: the percent labeling is 55.1%. The compound `O=C(CCS)Nc1ccccc1Oc1ncc(Cl)cc1Cl` came in with a percent labeling of 30.4%. Under `O=C(NC1(C(=O)NCCS)CCCC1)c1ccc2[nH]ncc2c1` stands 43.5%; under `Cc1ccc(N2CCCC2=O)c(C(=O)NCCS)c1`, 26.6%; under `O=C(CCS)Nc1cnn2cc(Br)cnc12`, 61.3%. Under `Cc1c(CN2CCSCC2)cccc1NC(=O)CCS` stands 48.2%; under `CN1Cc2ccc(NC(=O)CCS)cc2C1=O`, 44.8%. Under `Cn1c2c(ccc1=O)C(NC(=O)CCS)CCC2` (stereo not drawn) stands 31.4%; under `CN(CCO)C1(CNC(=O)CCS)CCCCC1`, 40.6%; under `O=C(CNC(=O)N1CCc2ccccc2C1)NCCS`, 29.6%.

`Cc1nc2nnnn2c(C)c1CCC(=O)NCCS` had a percent labeling of 34.7%.

Turning to `O=C(NCCS)c1ccc2ccccc2c1O`, the percent labeling was 20.9%. As for `O=C(CCS)Nc1ccn(-c2ncccc2C(F)(F)F)n1`, the figure is 42.1%. `Cc1ccc2[nH]cc(CCC(=O)NCCS)c2c1` displayed a percent labeling of 19.5%. Under `CC(C)(C)CCC1(O)CC(C(=O)NCCS)C1` (stereo not drawn) stands 20.3%; under `COc1ccc2onc(CC(=O)NCCS)c2c1`, 28.4%. Under `Cc1nc2c3ccccc3nn2c(C)c1CCC(=O)NCCS` stands 19.1%; under `O=C(CCS)N1CCC(n2ccnn2)CC1`, 39.2%; under `O=C(CCS)NCCn1cnc2ccccc2c1=O`, 29.8%.

With `Cc1sc(-n2cccc2)c(C(=O)NCCS)c1C`, the percent labeling was found to be 27.5%.

Take `O=C(CCS)NCc1ncc2c(n1)CCOC2`: the percent labeling is 9%. As for `O=C(CCS)N1CCC2=C(C=NS(=O)(=O)N2)C1`, the figure is 18.5%; as for `CN(C)CC1COC2(CCCC2)CN1C(=O)CCS` (stereo not drawn), 44.8%; as for `CCc1cc(C(=O)NCCS)ccc1Br`, 28.6%. As for `O=C(NCCS)c1cc2scc(Br)c2[nH]1`, the figure is 26.5%; as for `Cc1ccn(-c2ccccc2NC(=O)CCS)n1`, 27%. As for `Cc1cc(-n2cccc2)ccc1C(=O)NCCS`, the figure is 35.3%.

On to `CCCn1c(C(=O)NCCS)cc2ccccc21`, for which the percent labeling was 18.5%. As for `O=C(CCS)NCC(=O)NC1CCC(O)CC1` (stereo not drawn), the figure is 24%. As for `O=C(CC1CC(=O)Nc2ccccc21)NCCS` (stereo not drawn), the figure is 32.4%; as for `Cc1onc(-c2ccsc2)c1C(=O)NCCS`, 28.4%. As for `O=C(CCc1ncc[nH]1)NCCS`, the figure is 30.8%; as for `CC1CCC(C(=O)NCCS)C2C(=O)N(c3ccccc3)C(=O)C12` (stereo not drawn), 31%; as for `O=C(NCCS)C1CCC(c2ccccc2)CC1` (stereo not drawn), 18.7%. In turn, `O=C(CCS)NC1CC(N2CCC(C(F)(F)F)CC2)C1` (stereo not drawn) registered a percent labeling of 48.3%. As for `Cc1ccc(C(=O)NCCS)cc1N1C(=O)C2CCCCC2C1=O` (stereo not drawn), the figure is 26.5%; as for `O=C(CCS)N1CCC(c2nn(-c3ccccc3)cc2F)CC1`, 37.4%. Under `Cn1nc2c(c1NC(=O)CCS)CCCC2` stands 36.5%; under `Cc1c(Br)ccc2nc(C(=O)NCCS)cn12`, 16.5%; under `Cc1cnc(OC2CCN(C(=O)CCS)CC2)nc1`, 40.4%. Under `Cc1noc(C)c1CN(C(=O)CCS)c1ccccc1` stands 39.9%; under `O=C(NCCS)c1cc(C2CCOCC2)no1`, 42.5%. In the case of `O=C(COc1nsnc1N1CCOCC1)NCCS`, the percent labeling turned out to be 34.8%.

Regarding `O=C(CCS)N1CCN(c2cccc(F)c2F)CC1`, the percent labeling is 42.2%. As for `Cc1ccc2nc(COc3ccc(C(=O)NCCS)cc3)cn2c1`, the figure is 21.2%. As to `O=C(NCCS)c1nc(C2CC2)n(-c2ccccc2)n1`, the percent labeling worked out at 49.9%.

Consider `CCOC(=O)c1ccnc(C2(NC(=O)CCS)CC2)n1`, for which the percent labeling was determined as 31.3%. Under `O=C(CCC1Cc2ccccc2NC1=O)NCCS` (stereo not drawn) stands 40.4%; under `O=C(CCS)N1CCc2[nH]cnc2C1c1ccccc1` (stereo not drawn), 49.2%; under `CC(C)c1nc(-c2ccccc2Cl)ncc1C(=O)NCCS`, 13.7%. As for `O=C(NCCS)[C@@H]1CC[C@H](CN2CCOCC2)O1`, the figure is 21.4%; as for `O=C(CCS)NC1CCN(c2ncccn2)CC1`, 41.8%. Under `O=C(NCCS)C1CN=C(c2ccccc2)NC1` (stereo not drawn) stands 49.4%. `O=C(CC(N1CCOCC1)C(F)(F)F)NCCS` (stereo not drawn) gave a percent labeling of 33.5%. Under `O=C(CCS)NCCNC(=O)Cn1ccc(C(F)(F)F)n1` stands 32.6%; under `N#Cc1ccc(-c2ccc3c(c2)N(C(=O)CCS)CCO3)cc1`, 46.5%; under `O=C(CCS)NCc1cc(COc2ccccc2F)on1`, 35.2%. As for `O=C(NCCS)c1c(Cl)cccc1Oc1ccccc1Cl`, the figure is 21.3%. Under `Cc1cc(C(=O)NCCS)ccc1-n1cnnn1` stands 32.1%; under `O=C(CCS)NC[C@@H]1Cc2ccccc2CO1`, 40.1%. In the case of `O=C(CC(O)(c1nc2ccccc2s1)C(F)(F)F)NCCS` (stereo not drawn), the percent labeling came to 16.4%.

With `COc1ccc(CCNC(=O)CCS)cc1Br`, the percent labeling came to 39.2%. Under `CCC(C)n1ncc2c(C(=O)NCCS)cc(C)nc21` (stereo not drawn) stands 36.4%; under `O=C(CCS)N(Cc1nc2ccccc2c(=O)[nH]1)CC1CCCO1` (stereo not drawn), 35.2%; under `Cc1sc2ncnc(N3CCC(C(=O)NCCS)CC3)c2c1C`, 49.1%. As for `O=C(NCCS)c1cc(-c2ccc3c(c2)CCO3)no1`, the figure is 17.6%; as for `O=C(CCS)Nc1cc(F)c(F)cc1N1CCOCC1`, 41.3%; as for `O=C(NCCS)c1cnnn1Cc1ccccc1`, 36.7%.

Consider `O=C(CCS)NCCNc1ncccc1C(F)(F)F`, for which the percent labeling was 44.3%. Under `O=C(NCCS)c1cc(-c2ccc(Cl)cc2)ns1` stands 18.9%; under `Cn1cc(-c2ccccc2)nc1C(=O)NCCS`, 22.4%.

Consider `O=C(CCS)NC1CC(c2cccc(Cl)c2)C1` (stereo not drawn), for which the percent labeling is 18.1%.

On to `O=C(Cn1c(=O)[nH]c2ccccc2c1=O)NCCS`, for which the percent labeling came to 36.1%. As for `O=C(CCOc1cccc(Cl)c1Cl)NCCS`, the figure is 26.5%; as for `O=C(Cn1cnc2c(oc3ccccc32)c1=O)NCCS`, 29.6%. As for `CCc1c(C(=O)NCCS)nnn1Cc1ccccc1`, the figure is 35.7%; as for `Cn1c(=O)[nH]c2ncc(-c3cccc(C(=O)NCCS)c3)cc21`, 29.7%. As for `Cc1nn(CC(F)F)c(C)c1NC(=O)CCS`, the figure is 32.4%; as for `N#Cc1ccc(N2CCCC2C(=O)NCCS)cc1` (stereo not drawn), 17.5%; as for `Cc1nc(-c2ccc(C(=O)NCCS)cc2)n[nH]1`, 46%. With `O=C(CCS)N1CCN(C(=O)c2cc(Cl)c[nH]2)CC1`, the percent labeling amounted to 52.8%. Under `Cc1cc(-c2cc(C(=O)NCCS)c3c(C)noc3n2)c(C)o1` stands 16.7%; under `Cc1cc(C(=O)NCCS)c(C)n1Cc1ccccc1`, 15.7%. As for `Cc1nnnn1-c1ccc(C(=O)NCCS)c(F)c1`, the figure is 43.9%; as for `Cc1noc2nc(C(C)C)cc(C(=O)NCCS)c12`, 31.3%.

With `Cc1c(CNC(=O)CCS)oc2ccc(Cl)cc12`, the percent labeling was 31.5%.

Take `O=C(NCCS)C1(C2CCCCC2)CCCCC1`: the percent labeling was found to be 24.9%. As for `O=C(NCCS)c1cc(=O)[nH]c2cc(F)ccc12`, the figure is 24%; as for `NC(=O)N1CCc2ccc(NC(=O)CCS)cc21`, 30%; as for `O=C(NCCS)c1nc2c(Br)cccn2n1`, 53.4%. Take `Cc1cnc(C2(NC(=O)CCS)CCOCC2)[nH]1`: the percent labeling stood at 34.1%. Compound `O=C(NCCS)c1cccc(-c2ccccc2)n1` showed a percent labeling of 35%.

For the compound `COC1CCn2cc(C(=O)NCCS)nc2C1` (stereo not drawn), the percent labeling came out at 29.9%. Under `O=C(NCCS)c1ccn(-c2cccc(F)c2)n1` stands 40.4%; under `CC(C)N(CC(=O)N1CCCCCC1)C(=O)CCS`, 34.6%.

The compound `CN(C)C(=O)Cn1cccc(C(=O)NCCS)c1=O` registered a percent labeling of 39.8%. Under `NS(=O)(=O)c1ccc(C(=O)NCCS)cc1` stands 44.7%; under `O=C(CC1NC(=O)N(c2ccc(F)cc2)C1=O)NCCS` (stereo not drawn), 34.9%. As for `CCCN(CC(=O)Nc1ccccc1OC)C(=O)CCS`, the figure is 39.3%; as for `Cn1c(C(F)(F)F)nc2cc(C(=O)NCCS)ccc21`, 29.9%.

The compound `O=C(CCS)Nc1nnc(-c2ccccc2)s1` showed a percent labeling of 16.9%.

On to `O=C(CCS)NCc1ccc(Oc2ccccc2)nc1`, for which the percent labeling came out at 39%. Under `O=C(NCCS)c1csc(-c2cnn(-c3ccccc3)n2)n1` stands 13.7%; under `Cc1ccc(-n2nc(C)c(C(=O)NCCS)n2)c(C)c1`, 35%; under `CCc1c(C)nn(-c2cccc(C(=O)NCCS)c2)c1C`, 31%. As for `Cc1nccn1-c1cc(C(=O)NCCS)ccn1`, the figure is 46%; as for `CN(CCCc1[nH]nc(N)c1C#N)C(=O)CCS`, 43.3%. The compound `O=C(CCS)N1CC2(CC(C(F)F)=NO2)C1` showed a percent labeling of 32.4%.

Consider `Cc1nc2[nH]n(C)c(=O)c2c(C)c1CCC(=O)NCCS`, for which the percent labeling is 32.4%. Under `Cn1nc(C(=O)NCCS)cc1C1CC1` stands 52.2%. `COc1ccc2[nH]cc(CC(=O)NCCS)c2c1` yielded a percent labeling of 22.3%. As for `CN(Cc1ccc(Cl)cc1Oc1ccc(Cl)cc1)C(=O)CCS`, the figure is 18.8%; as for `O=C(NCCS)c1cccnc1-n1cc(Br)cn1`, 36%. With `O=C(NCCS)c1cnn(C2CCCOC2)c1C(F)(F)F` (stereo not drawn), the percent labeling was found to be 36.4%. As for `O=C(NCCS)c1ccc2[nH]cnc2n1`, the figure is 51.8%; as for `COc1cc(NC(=O)CCS)c(OC)cc1CCNC(C)=O`, 41.5%.

For the compound `O=C(CCc1ccccc1N1CCOCC1)NCCS`, the percent labeling came to 29.5%. Under `N#Cc1ccc(N2CCC(C(=O)NCCS)CC2)c(F)c1` stands 23%; under `O=C(CCS)NC1CCN(C2CCOCC2)CC1`, 46.9%; under `O=C(Cc1cnccc1C(F)(F)F)NCCS`, 36.1%. Under `Cc1cccc(CC(=O)NCCS)c1Br` stands 35.4%; under `O=C(CCS)NC1CC(O)(C(F)(F)F)C1` (stereo not drawn), 30.6%. As for `O=C(CCS)NCCCc1cn[nH]c1C(F)(F)F`, the figure is 46.6%. Compound `O=C(CCS)NC1CCc2ccccc2-n2ccnc21` (stereo not drawn) came in with a percent labeling of 44.5%.

In turn, `COc1ccc2c(c1)CCN(C(=O)CCS)C2` displayed a percent labeling of 35.6%. Under `O=C(CCS)NC1CC(N2CCOCC2)C1` (stereo not drawn) stands 30.4%. Compound `CCCC(NC(=O)CCS)c1ncc(-c2ccc3c(c2)OCO3)[nH]1` (stereo not drawn) came in with a percent labeling of 30.6%. In turn, `COc1cccc(N2CCN(C(=O)CCS)CC2)c1` yielded a percent labeling of 32.7%. As for `Cc1nn(COc2ccc(F)cc2)c(C)c1NC(=O)CCS`, the figure is 38.8%; as for `CN1C(=O)COc2ccc(C(=O)NCCS)cc21`, 45.9%. As for `CC(=O)N(Cc1ccsc1)C1CC12CCN(C(=O)CCS)CC2` (stereo not drawn), the figure is 39.5%; as for `O=C(NCCS)c1cc2ccccc2[nH]c1=O`, 35.1%. Under `O=C(CCS)N1CCN(c2ccncc2F)CC1` stands 45.8%; under `COc1sccc1C(=O)NCCS`, 51%.

The compound `Cc1cn(-c2ccccc2)nc1C(=O)NCCS` returned a percent labeling of 31.2%.

The compound `CC(C)C(C(=O)NCCS)n1cnc2cc(F)c(F)cc21` (stereo not drawn) came in with a percent labeling of 30.1%. As for `O=C(NCCS)C(F)(F)C1(O)CCCCCC1`, the figure is 33.8%; as for `Cc1nc(C2CCN(C(=O)CCS)CC2)c2n1CCN(C)C2`, 44.9%; as for `O=C(Nc1ccccc1O)C1CCN(C(=O)CCS)CC1`, 40.1%. As for `CC(C)(C)C(NC(=O)CCS)c1nc(-c2ncn[nH]2)no1` (stereo not drawn), the figure is 37.8%; as for `COc1ccc(C(F)(F)C(=O)NCCS)cc1`, 26.9%; as for `O=C(NCCS)C(O)Cc1ccccc1Cl` (stereo not drawn), 33%. Under `Cc1cc(NC(=O)CCS)nn1Cn1cc(Cl)cn1` stands 61.8%.

The values above are taken from PubChem BioAssay AID2202238 (Ras Initiative Chemistry Research Team, Frederick National …, 2025).
